# In the supplement of paper PMC11417369:
# ± gives the standard deviation of the averaged measurements. Some of the results follow.
# Test system: PfAP2-EXP AP2 domain (GST-tagged)
# Assay: gcPBM binding intensity (ln(normalized median fluorescence intensity)); higher = stronger DNA binding
# How it was run: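 The highest Masliner-normalised natural-log median intensity across replicate spots of either probe orientation is reported as binding intensity. GST-tagged P. falciparum DNA-binding domains expressed in E. coli were applied for 1 h to an Agilent 4 × 180k array of primer-extended double-stranded 36-bp intergenic genomic probes plus negative controls, and bound protein was detected with Alexa488 anti-GST antibody and scanned at 488 nm.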
row,Sequence,gcPBM binding intensity (ln)
1,ATATAAAAATACAGGTGTACATTTTTTCATATTTAT [XGTACX_site6959],8.42 ± 0.34
2,TTTTTTGAAAATAAAAGTACAAATTTTATATTTAAA [XGTACX_site2758],8.08 ± 0.42
3,ACAAACTAAAAAAGAAGTACAAATCGTATTAATAAT [XGTACX_site8684],8.87 ± 0.49
4,AGAAAAAAACGGTACAGTACACATAAACTAATTATT [XGTACX_site8617],8.81 ± 0.52
5,TATTATATATGGAAGTAATAATATATATATATATAT [GTGCAC_negctrl_site63],9.96 ± 0.62
6,GTTAATTCATTAAGGACACACAAAAAAAAAAAAAAA [CACACA_site998],8.18 ± 0.47
7,ATGAATATAAAATATACACACTTATATATTGAATGA [CACACA_site4274],8.16 ± 0.32
8,GATTAAATTTGACACTGTACAAAAAATAAAATGAGG [XGTACX_site504],8.78 ± 0.4
9,CTTATATGAAGCCTCTTTATTCATAAATAAGAATAA [TGCATGCA_negctrl_site120],8.12 ± 0.45
10,AGTATACATATATATACACACACATATATATATATA [CACACA_site7883],9.98 ± 0.62
11,CCAACATAGAGGGGCACACACATATATACATAAAAA [CACACA_site1847],8.54 ± 0.2
12,TTAACAAAATTTCCGTGTACGTAAATAAGAACATAG [XGTACX_site7200],8.82 ± 0.18
13,AAACAACATGGACACGCACACACAAAAAAAGCATGC [CACACA_site73],9.16 ± 0.13
14,TTACATACATACAAGTGTACGCATATATTAATATTA [XGTACX_site4006],8.86 ± 0.37
15,TTTAACATTTCAGATGTGCACATTTTCCGAACCAGT,8.885 ± 0.021
16,ATATGTACAAGTTATACACACATGTACAGTTATATA [CACACA_site6706],8.69 ± 0.14
17,AGAACGACTAAGCAGTGTACATTTTGTATATACAAT [XGTACX_site2831],8.62 ± 0.31
18,AAAGAACTTAATGCTGCACACAAAAAAAAGGAAAAA [CACACA_site8375],8.61 ± 0.36
19,TAAATGTGTATATATTGTACAAATATTAATACATAC [XGTACX_site8102],8.58 ± 0.21

row,Sequence,gcPBM binding intensity (ln)
1,AAATTGTTAAAAAGAAGTACATTCTTTTATTTCTTA [XGTACX_site540],8.17 ± 0.23
2,ATAATGAAGACTTTTTTACACACTTCATATATTATA [CACACA_site8630],8.86 ± 0.53
3,TGATATTTTTCCATAGTGCAAAATATAGTAATGTAT,8.59 ± 0.12
4,ATATAACATAATGGATGTACATGTATAAATATAAAA [XGTACX_site8228],9.02 ± 0.45
5,ATATATATGGTCATTTGTACATATCGTGAGAGCTGC [XGTACX_site4117],8.79 ± 0.43
6,AGAATCACCAAATATGTACACACCTTAACATGTTTA [CACACA_site2068],9.01 ± 0.46
7,TATATTATAAATTAATGTACGTAATTTTTTTTTTTT [XGTACX_site2500],8.27 ± 0.59
8,TTTTTTTTTTACTTCACACATATACATTTATATTTA [CACACA_site4385],8.7 ± 0.44
9,TAAACATACAGATACACACACACACCCACAGAGACA [CACACA_site4429],8.74 ± 0.53
10,CTTGGGCGTCATAATGAACACACAATTATATTATGA [CACACA_site9297],8.27 ± 0.45
11,TTATTACCATATTTTGTACACACATCTTTATCTCAA [CACACA_site9054],8.92 ± 0.4
12,ATTATATAATCTATATGTACATATATATATATATAT [XGTACX_site4970],10.1 ± 0.3
13,TATATATAAGCGCATGCACACGCAAAGGTATATAAA [CACACA_site8107],9.4 ± 0.11
14,AAAATAATAAATAACGCATGCGTGTGCATTTTATTC [TGCATGCA_site898],9.305 ± 0.064
15,ATATATACAAATCCTTTTTTCCAAGATGGAAAAAGA [CACACA_negctrl_site382],8.18 ± 0.51
16,ATAATAATATTATTTTGTACATATGTGCTTATTTAT [XGTACX_site5540],8.99 ± 0.45
17,AGTAATAAGTAATTTACACACATATTATAGCATCAC [CACACA_site6971],8.56 ± 0.5
18,GTATAATTTAAAAAGTGTACATAAAGTTTTTATTAA [XGTACX_site1090],8.38 ± 0.2
19,TTTTGTCAACATTTTTATATTAGGTCTTGAACGATT [GTGCAC_negctrl_site72],8.35 ± 0.45

row,Sequence,gcPBM binding intensity (ln)
1,AAAAAATTCAAAATCACACATAAAAAAGGACACATA [CACACA_site5972],8.88 ± 0.38
2,CCTACAATTCGTAATACACACACATATATATATATA [CACACA_site9251],10.2 ± 0.16
3,ACATTATATAAAATATGTACACATAAATAAATAAAT [XGTACX_site5031],8.73 ± 0.41
4,TAATTTTGTAAAAATTGTACATATTTATCTTTTTAT [XGTACX_site4305],8.22 ± 0.37
5,TCATATTATAAAAAATGTACAAGGAAAAAATATATA [XGTACX_site337],9.06 ± 0.58
6,AAAAAAAAAAAAAACACACACATATAATATATTTAA [CACACA_site1337],8.35 ± 0.38
7,TATATAATAAGATATGCATGCACATGTAAAATGAAT [TGCATGCA_site499],10.1 ± 0.13
8,TTAAAATAGATAAATAGTACTCTTTCCATTATGTAA [XGTACX_site6299],8.16 ± 0.29
9,ATAATGTTTTATAATACACACATTAGATATATAAAT [CACACA_site7834],8.36 ± 0.37
10,TCATATAACACTTGATGTACAAGAATCCAAGTTGCA [XGTACX_site8758],8.48 ± 0.33
11,ATATGTATAATATATATATATATATATATATATATA [CACACA_negctrl_site623],9.94 ± 0.54
12,TAAATACTTTTATGTACACACATATAGATATATATT [CACACA_site5416],8.54 ± 0.26
13,TTGAACCTGATAAATACACACAATATATATTTTTTT [CACACA_site2173],8.2 ± 0.47
14,GTGATAAATATTATATGTACATATAATATTTATGTC [XGTACX_site8023],8.62 ± 0.28
15,CCATTCTTACTTTATTGTACTTGAAAATTTTTTTTA [XGTACX_site6160],8.85 ± 0.4
16,TCAAAAACGAGACATGCATGCAATTCATTTTGATTC [TGCATGCA_site212],9.94 ± 0.38
17,TTTTTGTGCATTGATTGTACTTTCTAGGATTATTAA [XGTACX_site7070],8.92 ± 0.042
18,TTTATCCAATAATCTGGTACACAATAATCATTCATG [XGTACX_site6192],8.38 ± 0.36
19,TTTCTATTTATTTCAAGTACTAAAAATATATATAAC [XGTACX_site8203],8.46 ± 0.38
